# Measurements from the supplement of paper PMC12217912.
# The other results are listed elsewhere or left out. Sequences were assembled here from the parent chain. Inactive controls read about 0.05.
# B1: TEV protease; numbered along this chain (parent)
# chain: MGESLFKGPRDYNPISSSICHLTNESDGHTTSLYGIGFGPFIITNKHLFRRNNGTLVVQSLHGVFKVKDTTTLQQHLVDGRDMIIIRMPKDFPPFPQKLKFREPQREERICLVTTNFQTKSMSSMVSDTSCTFPSGDGIFWKHWIQTKDGQCGSPLVSTRDGFIVGIHSASNFTNTNNYFTSVPKNFMELLTNQEAQQWVSGWRLNADSVLWGGHKVFMVKPEEPFQPVKEATQL
# Variants of: B1
# Test: raw area under fraction-flipped curve 0-4 h after induction (AUC4h, not background-subtracted), DNA-recorder readout of cleavage of the substrate (dimensionless); higher = more cleavage of the substrate by the protease variant
# Details: temperature: 34 °C; time window: 0-4 h after rhamnose induction
# Procedure: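 In vivo DNA recorder in E. coli TOP10(DE3) ΔrhaA at 34 °C. Each TEVp single-site mutant (parent TEVp 0) is paired with a single-site variant of the 7-mer TEVs (canonical ENLYFQ|S). The substrate sits between flexible linkers in a Bxb1-sfGFP-TEVs-SsrA fusion, so cleavage stabilises Bxb1 and speeds flipping of a recombination array, read by NGS. The value is the raw area under the fraction-flipped curve over 0-4 h after rhamnose induction (AUC4h), with ≥20 reads per time point. It is not background-subtracted; inactive controls average about 0.047.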
# 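Also: Bxb1 expression induced with 0.2% (w/v) L-rhamnose at OD600 near 0.5, cultures sampled hourly, flipped fraction per protease–substrate barcode pair counted by paired-end Illumina sequencing.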
Variant,area with substrate ENLAFQS,area with substrate ENLCFQS,area with substrate ENLDFQS,area with substrate ENLEFQS,area with substrate ENLFFQS,area with substrate ENLGFQS,area with substrate ENLKFQS,area with substrate ENLMFQS,area with substrate ENLQFQS,area with substrate ENLRFQS,area with substrate ENLHFQS,area with substrate ENLIFQS,area with substrate ENLNFQS,area with substrate ENLTFQS,area with substrate ENLVFQS,area with substrate ENLWFQS,area with substrate ENLSFQS,area with substrate ENLLFQS,area with substrate ENLPFQS
W144I,0.0683,0.0784,0.0613,0.054,0.0564,0.065,0.0686,0.063,0.0811,0.0808,–,–,–,–,–,–,–,–,–
W144F,0.0615,0.0622,0.0537,–,–,–,0.0492,–,–,–,0.0487,0.0885,0.0672,0.0701,0.0731,0.0659,–,–,–
W144A,0.0636,0.0828,0.0605,–,0.0743,0.0952,0.0746,–,0.0791,0.0603,0.0704,0.0736,0.0799,–,–,–,0.0853,–,–
W144D,0.0606,0.0629,0.0534,–,0.0882,–,–,–,–,–,0.0799,–,0.0558,0.068,0.0627,0.0698,–,0.0686,0.057
I167E,0.0495,–,0.0666,–,–,–,0.0403,–,–,–,0.0478,0.042,0.0468,–,–,–,0.0632,–,0.0582
I167D,0.0725,0.0424,0.0733,0.0599,0.0496,–,0.0631,–,–,0.0574,0.0583,0.0557,0.0711,0.0595,–,0.0413,0.0622,0.066,0.0552
G150T,0.0692,–,0.0624,0.0635,0.066,–,0.106,–,0.0518,0.0562,0.0591,0.0601,0.0668,–,0.0588,0.0615,0.0487,0.0573,0.061
G150N,0.0516,0.0556,0.0746,0.0663,0.0683,–,0.0592,0.0604,0.0761,0.0713,0.062,0.0564,0.0388,–,–,–,0.064,–,0.0744
T132D,0.0536,0.0543,0.0534,0.0525,0.0662,0.0641,–,–,–,0.0569,0.0591,0.064,0.0501,0.0536,0.0546,0.0611,0.0513,0.0536,0.0606
T132M,0.0606,–,0.0606,0.0467,0.0897,0.0586,0.0757,–,0.0734,0.0716,0.0618,0.076,–,0.0714,0.087,0.0737,0.0583,0.0693,–
L156N,0.0507,0.0398,0.0916,0.053,0.0509,0.0394,0.0461,0.0542,0.0691,0.0474,0.0595,0.0499,0.056,0.0583,0.0579,0.0448,0.0546,–,0.046
C152R,0.0613,–,–,0.0597,0.0677,0.0925,0.0615,–,0.0619,0.045,0.051,0.0663,0.0658,–,–,0.0719,0.057,–,0.0673
C152T,0.0476,0.0589,0.063,0.0535,0.0614,–,0.0552,–,0.0525,–,0.0613,0.0648,0.0678,–,–,–,–,0.0484,0.0509
C152Y,0.0635,0.0523,–,–,–,–,0.0677,–,–,0.0622,0.0592,–,0.061,–,0.0742,–,0.0546,0.0364,0.0368
D128S,0.0539,0.0943,–,–,0.119,–,0.11,–,–,0.129,0.0844,0.108,0.0581,–,0.118,0.0936,–,0.0641,0.0571
S124K,0.0564,–,0.0716,–,0.1,0.0754,0.0778,0.0865,–,0.0762,0.0614,–,0.065,–,0.0899,0.0632,0.061,0.0408,0.059
V165C,0.0503,–,0.0602,0.066,–,–,–,0.0606,0.0797,0.061,–,–,0.0567,0.0604,0.0552,0.0852,0.0647,0.0646,0.0591
H168S,0.0734,–,0.0814,–,0.0677,–,0.0564,0.0608,0.0677,–,0.0678,0.0595,0.0486,0.059,–,0.0527,–,0.0484,0.0592
H168R,0.059,–,0.0845,–,0.055,–,0.0656,0.0579,–,0.042,0.0576,0.0522,0.051,–,0.0669,0.0627,0.0664,–,0.046
H168T,0.0743,–,0.0865,–,0.0498,–,0.0594,–,0.0526,–,–,–,0.0591,0.0944,–,0.0469,0.0485,–,0.0627
H168V,0.0646,–,0.0646,0.0669,0.0593,0.0699,0.07,–,0.0527,0.105,0.0517,–,0.0543,–,–,0.046,0.0661,0.0586,0.0555
L112K,0.0633,0.0827,0.0608,0.05,0.0996,–,–,0.0921,0.0721,0.0667,0.0728,0.0937,0.0609,0.0746,0.0896,0.0656,0.0641,0.068,0.0462
L112T,0.0522,0.0717,0.0739,0.0796,0.0637,0.0704,0.0654,–,0.0654,–,0.069,–,0.0634,–,0.0695,–,0.0459,0.0729,0.0603
L112V,0.0366,–,–,0.0723,0.106,0.0728,0.0789,–,0.0676,0.0701,0.0616,–,0.0676,0.0596,0.0895,0.0638,0.0599,0.058,0.0642
K120T,0.0735,–,–,0.0592,0.0531,0.0525,–,0.1,0.0787,–,0.0658,–,–,–,–,0.0736,–,0.0551,0.0387
K120I,0.0831,0.0499,0.0783,0.0643,0.0935,–,0.0804,–,0.059,–,–,0.077,–,–,–,0.0587,0.0542,–,0.0374
V126T,0.069,0.0662,0.0699,0.0624,0.0898,–,0.0482,–,0.0613,0.0751,0.0641,0.0871,0.0686,–,0.0938,0.0709,0.0582,–,0.0632
